This note sets out measurements from patent US20240076345A1 (SUZHOU ALPHAMAB, published 2024).

This assay has as its target T1, GLP1R-muFc (human).
T1 construct: also called fusion protein of the GLP-1 receptor and mouse Fc; GLP-1 receptor
T1 chain: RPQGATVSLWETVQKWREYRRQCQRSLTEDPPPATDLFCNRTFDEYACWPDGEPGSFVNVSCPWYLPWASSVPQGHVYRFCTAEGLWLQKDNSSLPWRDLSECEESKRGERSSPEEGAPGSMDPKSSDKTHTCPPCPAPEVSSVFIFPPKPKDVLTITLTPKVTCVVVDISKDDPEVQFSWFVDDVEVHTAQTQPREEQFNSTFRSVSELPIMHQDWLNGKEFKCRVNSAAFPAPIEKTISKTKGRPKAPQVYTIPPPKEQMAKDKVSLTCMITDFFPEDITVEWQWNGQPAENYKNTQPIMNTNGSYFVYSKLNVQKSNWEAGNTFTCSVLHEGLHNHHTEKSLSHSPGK
The assay is described as follows: ELISA on coated GLP1R-muFc. How it is done:
The binding affinities of the fusion proteins of Example 1 for the GLP-1 receptor were measured by ELISA. A fusion protein of the GLP-1 receptor and mouse Fc was expressed, and the fusion protein was referred to as GLP1R-muFc (SEQ ID NO: 3). GLP1R-muFc was diluted to 5 μg/mL and used to coat a 96-well plate; it was fixed at room temperature for 30 min. The plate was washed with PBS once, then blocked with 1% BSA at 37° C. for 30 min, and washed with 0.05% PBST20 three times. Test samples (4-fold serial dilutions, 10 μg/mL) were added at 50 μL/well. KN042 was used as a positive control. The plate was incubated at 37° C. for 1 h and washed with PBST five times. Mouse monoclonal HP6023 anti-human IgG4Fc-HRP (abcam, ab99817, 2000-fold diluted with 0.05% PBST20 containing 1% BSA) was added at 50 μL/well. The plate was incubated at 37° C. for 1 h and washed with PBST five times. To each well was added 50 μL of TMB, and color development was allowed for 3 min. To each well was added 50 μL of 1 M H2SO4 to stop the reaction. The OD values were measured on a microplate reader (Molecular Devices, SpectraMax M3). KN042 was used as a positive control.
A general note: An ELISA detects its analyte on a solid surface through an enzyme-linked reagent.

Residue numbers refer to the chain shown, from its start. Names and notes keep the numbering of the source.

B1: dulaglutide (Fc fusion)
chain: HGEGTFTSDVSSYLEEQAAKEFIAWLVKGGGGGGGSGGGGSGGGGSA[here human IgG4 Fc with S228P F234A L235A (EU numbers) without letters]
notes: also called KN042; GLP-1-Fc
As to B1, the binding result is “binds”.

B2: GM-WYYS (Fc fusion)
chain: B1 chain with Y13S, W25Y
notes: also called W31Y-Y19S
On to B2, for which the binding result is “binds”.

B3: GM-YA (Fc fusion)
chain: B1 chain with Y13A
notes: also called Y19A
For the molecule B3, the binding result is reported as “binds”.

B4: GM-KRWYQT (Fc fusion)
chain: B1 chain with Q17T, K20R, W25Y
notes: also called W31Y-K26R-Q23T
As for B4, the binding result is given as “binds”.

B5: GM-KRYA (Fc fusion)
chain: B1 chain with Y13A, K20R
notes: also called K26R-Y19A
B5: the binding result is listed as “binds”.

B6: GM-YV (Fc fusion)
chain: B1 chain with Y13V
notes: also called Y19V
On to B6, for which the binding result was “binds”.

B7: GM-WYFL (Fc fusion)
chain: B1 chain with F22L, W25Y
notes: also called W31Y, F28L
Regarding B7, the binding result is on record as “binds”.

B8: GM-WYYL (Fc fusion)
chain: B1 chain with Y13L, W25Y
notes: also called W31Y-Y19L
As for B8, the binding result is “binds”.

B9: GM-KRWYYL (Fc fusion)
chain: B1 chain with Y13L, K20R, W25Y
notes: also called W31Y-K26R-Y19L
In the case of B9, the binding result is given as “binds”.

B10: GM-KRYV (Fc fusion)
chain: B1 chain with Y13V, K20R
notes: also called K26R-Y19V
B10: the binding result is “binds”.

B11: GM-QE (Fc fusion)
chain: B1 chain with Q17E
notes: also called Q23E
As to B11, the binding result is reported as “binds”.

B12: GM-YI (Fc fusion)
chain: B1 chain with Y13I
notes: also called Y19I
Consider B12, for which the binding result is on record as “binds”.

B13: GM-KRWYQE (Fc fusion)
chain: B1 chain with Q17E, K20R, W25Y
notes: also called W31Y-K26R-Q23E
Consider B13, for which the binding result is listed as “binds”.

B14: GM-KRWYYS (Fc fusion)
chain: B1 chain with Y13S, K20R, W25Y
notes: also called W31Y-K26R-Y19S
Regarding B14, the binding result is “binds”.

B15: GM-WYYT (Fc fusion)
chain: B1 chain with Y13T, W25Y
notes: also called W31Y-Y19T
Turning to B15, the binding result is reported as “binds”.

B16: GM-KRYS (Fc fusion)
chain: B1 chain with Y13S, K20R
notes: also called K26R-Y19S
With B16, the binding result was “binds”.

B17: GM-KRWYYV (Fc fusion)
chain: B1 chain with Y13V, K20R, W25Y
notes: also called W31Y-K26R-Y19V
In the case of B17, the binding result was “binds”.

B18: GM-KRWYYI (Fc fusion)
chain: B1 chain with Y13I, K20R, W25Y
notes: also called W31Y-K26R-Y19I
With B18, the binding result was “binds”.

B19: GM-FY (Fc fusion)
chain: B1 chain with F22Y
notes: also called F28Y
As for B19, the binding result was “binds”.

B20: GM-KRWYYT (Fc fusion)
chain: B1 chain with Y13T, K20R, W25Y
notes: also called W31Y-K26R-Y19T
On to B20, for which the binding result was “binds”.

B21: GM-WYYF (Fc fusion)
chain: B1 chain with Y13F, W25Y
notes: also called W31Y-Y19F
As to B21, the binding result is “binds”.

B22: GM-WYQE (Fc fusion)
chain: B1 chain with Q17E, W25Y
notes: also called W31Y-Q23E
Consider B22, for which the binding result was “binds”.

B23: GM-WYYV (Fc fusion)
chain: B1 chain with Y13V, W25Y
notes: also called W31Y-Y19V
On to B23, for which the binding result is on record as “binds”.

B24: GM-WIFL (Fc fusion)
chain: B1 chain with F22L, W25I
notes: also called W31I, F28L
Take B24: the binding result is “binds”.

B25: GM-KRYI (Fc fusion)
chain: B1 chain with Y13I, K20R
notes: also called K26R-Y19I; K26R-Y191
For B25, the binding result is on record as “binds”.

B26: GM-KRWYYF (Fc fusion)
chain: B1 chain with Y13F, K20R, W25Y
notes: also called W31Y-K26R-Y19F
Turning to B26, the binding result is recorded as “binds”.

B27: GM-KRWYQN (Fc fusion)
chain: B1 chain with Q17N, K20R, W25Y
notes: also called W31Y-K26R-Q23N
B27: the binding result is reported as “binds”.

B28: GM-KRQE (Fc fusion)
chain: B1 chain with Q17E, K20R
notes: also called K26R-Q23E
On to B28, for which the binding result is given as “binds”.

B29: GM-YS (Fc fusion)
chain: B1 chain with Y13S
notes: also called Y19S
On to B29, for which the binding result is recorded as “binds”.

B30: GM-YT (Fc fusion)
chain: B1 chain with Y13T
notes: also called Y19T
As to B30, the binding result is “binds”.

B31: GM-WL (Fc fusion)
chain: B1 chain with W25L
notes: also called W31L
Take B31: the binding result is given as “binds”.

B32: GM-KRWYQS (Fc fusion)
chain: B1 chain with Q17S, K20R, W25Y
notes: also called W31Y-K26R-Q23S
Take B32: the binding result was “binds”.

B33: GM-KRWYYA (Fc fusion)
chain: B1 chain with Y13A, K20R, W25Y
notes: also called W31Y-K26R-Y19A
With B33, the binding result is listed as “binds”.

B34: GM-YL (Fc fusion)
chain: B1 chain with Y13L
notes: also called Y19L
As for B34, the binding result is on record as “binds”.

B35: GM-KRFY (Fc fusion)
chain: B1 chain with K20R, F22Y
notes: also called K26R-F28Y
For B35, the binding result is recorded as “binds”.

B36: GM-WA (Fc fusion)
chain: B1 chain with W25A
notes: also called W31A
Regarding B36, the binding result is “binds”.

B37: GM-WYYI (Fc fusion)
chain: B1 chain with Y13I, W25Y
notes: also called W31Y-Y19I
Take B37: the binding result is “binds”.

B38: GM-WY (Fc fusion)
chain: B1 chain with W25Y
notes: also called W31Y
With B38, the binding result was “binds”.

B39: GM-WLFL (Fc fusion)
chain: B1 chain with F22L, W25L
notes: also called W31L, F28L
Take B39: the binding result is on record as “binds”.
